Among all 310,000 compounds or so, about 14,000 (4.5%) showed an effect of 50% or more. Effects have a minus sign here. Some of the results follow.
Target: human ether-à-go-go-related gene (hERG) potassium channel (human, UniProt Q12809)
Test: primary screen, population patch clamp on CHO cells stably expressing hERG
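Further: peak tail current of the secondary pulse compared with the same well before compound.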

Sequence of human ether-à-go-go-related gene (hERG) potassium channel (Q12809 whole entry, looked up): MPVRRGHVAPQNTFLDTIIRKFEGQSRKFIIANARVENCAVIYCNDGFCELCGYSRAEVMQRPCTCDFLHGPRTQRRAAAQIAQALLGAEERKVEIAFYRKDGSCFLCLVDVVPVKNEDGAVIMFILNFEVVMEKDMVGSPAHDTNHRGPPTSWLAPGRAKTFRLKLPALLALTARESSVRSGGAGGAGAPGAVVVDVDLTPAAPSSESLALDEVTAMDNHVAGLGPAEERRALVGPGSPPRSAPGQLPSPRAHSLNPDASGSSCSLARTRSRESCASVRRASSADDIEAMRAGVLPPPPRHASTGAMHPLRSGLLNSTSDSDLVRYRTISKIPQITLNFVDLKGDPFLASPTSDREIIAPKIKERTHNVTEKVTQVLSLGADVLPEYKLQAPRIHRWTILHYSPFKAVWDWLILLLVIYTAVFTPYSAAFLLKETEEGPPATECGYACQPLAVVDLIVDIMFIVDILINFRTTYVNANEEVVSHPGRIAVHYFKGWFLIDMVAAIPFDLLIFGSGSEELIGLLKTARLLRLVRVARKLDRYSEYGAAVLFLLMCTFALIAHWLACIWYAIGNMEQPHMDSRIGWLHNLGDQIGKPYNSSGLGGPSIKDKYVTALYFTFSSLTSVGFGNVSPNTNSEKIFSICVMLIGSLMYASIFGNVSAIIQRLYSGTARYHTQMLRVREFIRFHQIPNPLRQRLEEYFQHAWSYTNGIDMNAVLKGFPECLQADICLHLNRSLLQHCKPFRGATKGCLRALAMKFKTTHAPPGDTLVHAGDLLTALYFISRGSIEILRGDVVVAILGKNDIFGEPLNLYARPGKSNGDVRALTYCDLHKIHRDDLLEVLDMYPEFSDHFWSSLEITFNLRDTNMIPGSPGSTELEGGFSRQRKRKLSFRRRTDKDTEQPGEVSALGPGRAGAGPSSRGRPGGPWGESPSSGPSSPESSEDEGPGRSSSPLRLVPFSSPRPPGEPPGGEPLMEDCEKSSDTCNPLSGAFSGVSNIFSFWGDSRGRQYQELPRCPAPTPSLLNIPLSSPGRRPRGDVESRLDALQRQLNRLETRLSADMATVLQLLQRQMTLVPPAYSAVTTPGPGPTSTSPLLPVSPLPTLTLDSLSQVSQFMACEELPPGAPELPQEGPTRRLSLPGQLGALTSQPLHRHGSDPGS

Structure (SMILES)	hERG current change (%, negative = inhibition) at 10uM [%]
CCn1c(SCC(=O)NC2CC2)nnc1-c1cccs1	-5.39
CCc1cc2ccc(OC)cc2nc1SCC(=O)NNC(=O)c1ccco1	9.26
CCCC(=O)Nc1ccc(Br)c(Cl)c1	8.65
O=C(O)CCn1cc(/C=C\C(=O)c2ccc(Cl)cc2)c(-c2cccc(Br)c2)n1	5.23
Clc1ccccc1-c1nnc2n1-c1ccccc1SC2	-3.67
CCOC(=O)c1cc2c(=O)n3ccccc3nc2n(C(C)C)c1=NC(=O)c1ccco1	-56.8
COc1cccc(N=Nc2c(=O)[nH]n3c(=O)cc(C)[nH]c23)c1	26.9
COc1ccc(N2CC(C(=O)Nc3nnc(SCC(=O)N4CCCC4)s3)CC2=O)cc1 (stereo not shown)	19.9
O=C(CCSCCc1ccccn1)Nc1cc(F)ccc1F	-1.64
Cc1cccc(N2CCN(CC(O)COc3ccc(Cl)cc3)CC2)c1 (stereo not shown)	-41.3
COc1ccc(OC)c(-c2csc(NC(=O)CN3C(=O)NC4(CCCC4)C3=O)n2)c1	-23.6
CCc1ccc(NC(=O)CN(c2cc(C)cc(C)c2)S(=O)(=O)c2c(C)[nH]c(=O)[nH]c2=O)cc1	-33.7
COc1ccc(OCc2nn3c(-c4ccccn4)nnc3s2)cc1	-34.7
CCOc1ccc(-n2c(C)cc(/C=N\NC(=O)CC(=O)NC3CCCCC3)c2C)cc1	3.74
COc1ccccc1CN1CCNC(=O)C1CC(=O)NCc1c(C)n[nH]c1C (stereo not shown)	17.2
Cc1cc(N2CCN(C3CCCCC3)CC2)n2nc(C)nc2n1	-57.7
COc1cccc(N2CCN(c3ccc(N4C(=O)CCC4=O)cc3[N+](=O)[O-])CC2)c1	13.7
COc1ccc(N2CCN(C(CNC(=O)C(C)C)c3ccc4c(c3)OCO4)CC2)cc1 (stereo not shown)	9.23
O=C(Cc1ccccc1)NC(Nc1ccccc1)C(Cl)(Cl)Cl (stereo not shown)	4.12
N#Cc1cccc(C(=O)N(CCc2ccccc2)Cc2cccs2)c1	-53.3
Cc1ccc(CN2C3CCCC2CC(NC(=O)Nc2cccc(F)c2)C3)cc1 (stereo not shown)	-85.7
CNC(=O)Oc1ccc(N(C)C)cc1C(C)C	1.97

Structure (SMILES)	hERG current change (%, negative = inhibition) at 10uM [%]
COc1cc(OC)cc(C(=O)N[C@H](C(=O)Nc2nc(-c3cc(OC)ccc3OC)cs2)C(C)C)c1	-15.2
CN(C)CCCNS(=O)(=O)c1ccc(N2CCN(Cc3ccc4c(c3)OCO4)CC2)c([N+](=O)[O-])c1	-17.8
Cc1cc(NS(=O)(=O)c2ccc(NC(=O)c3cnc(Cl)c(Cl)c3)cc2)nc(C)n1	5.45
S=C(Nc1cccc(Cl)c1)N1CCN(c2ccccn2)CC1	12.9
Cc1ccc(C(=O)N/N=C\c2cccnc2)s1	6.27
O=C1CC(N2CCC(O)(c3ccc(Cl)cc3)CC2)C(=O)N1Cc1ccc(N2CCCC2=O)cc1 (stereo not shown)	-22
COc1cc(NC(=O)CSCc2ccccc2)c(C(=O)O)cc1OC	11.2
Cc1ccc2[nH]c(=O)c(CN(Cc3ccccc3Cl)C(=O)N3CCOCC3)cc2c1	-40.9
O=C(CSc1ncccn1)Nc1cccc2ccccc12	-3.33
COc1ccccc1CCNC(=O)C(=O)NCCC1CCCCN1S(=O)(=O)c1cccs1 (stereo not shown)	-6.92
CNCCC(=O)N1c2ccccc2CCc2ccc(NC(=O)OC)cc21.Cl	19.2
O=C1c2cc(O)cc(O)c2C(=O)c2c1cc(O)c([C@@H](CO)CCO)c2O	24.9
O=C(CN(C(=O)CNS(=O)(=O)c1ccc(F)cc1)c1cccc(F)c1)NCC1CCCO1 (stereo not shown)	20.7
CC(=O)Nc1ccc(NC(=O)C(C)OC(=O)c2ccccc2NS(=O)(=O)c2cccs2)cc1 (stereo not shown)	-16
O=C1NC(=O)C2(Cc3cc([N+](=O)[O-])ccc3N3CCN(C(=O)c4ccccc4)CC32)C(=O)N1 (stereo not shown)	23
COc1ccc(C(=O)NCC(=O)NCC2(N(C)C)CCCCC2)cc1OC	3.45
Cc1cccc(NC(=O)c2cc(-c3cc(C)c(C)cc3O)n[nH]2)c1	21.4
COC(=O)c1ccc2c(=O)n(NC(=O)C(c3ccccc3)c3ccccc3)c(=S)[nH]c2c1	-18.3
S=c1[nH]ccn1-c1ccc(Cl)cc1	19.8
CCN(CC)C(=O)Cn1cc(S(=O)(=O)CC(=O)Nc2ccc(C(N)=O)cc2)c2ccccc21	18.2
COc1ccccc1OCCOCCN1CCCC1	10.1
CC(C)NC(=O)c1ccc(N2CCOCC2)nc1	17.1

Structure (SMILES)	hERG current change (%, negative = inhibition) at 10uM [%]
CCOc1ccccc1C1c2[nH]c3ccccc3c2C[C@H]2C(=O)N(C3CCN(Cc4ccccc4)CC3)CC(=O)N12 (stereo partly shown)	-35.7
CC1(C)c2[nH]c3ccccc3c2C[C@@H]2C(=O)N(Cc3ccccc3Cl)C(=O)N21	15.4
Cc1ccc(S(=O)(=O)NC(=O)N2CCN(Cc3c(F)cccc3Cl)CC2)cc1	23.6
O=C(/C=C/c1ccc(O)cc1)c1ccccc1	3.82
C/C(=C\c1ccco1)CN1CCN(Cc2ccc(C)o2)C(CCO)C1 (stereo not shown)	-7.26
CC(=O)N1CCCc2ccccc21	15.5
C=C(C)C(=O)N1CC2(CC(c3cccc(NC(=O)c4ccccc4)c3)=NO2)C[C@@H]1C(N)=O (stereo partly shown)	-8.1
CC(C)(C)NC(=O)C(c1ccc(Cl)cc1)N(Cc1ccco1)C(=O)CCl (stereo not shown)	-3.86
NC(=O)c1ccc(N2CCCCC2)c(N2C(=O)C3C4C=CC(C4)C3C2=O)c1 (stereo not shown)	6.9
COc1ccc(C(=O)C[n+]2ccc3c(c2)nc(-c2cc(OC)c(OC)cc2OC)n3C)cc1.[Br-]	6.93
CCOC(=O)c1cc(-c2ccccc2)n(CC(=O)O)c1C	-3.73
CC12CCC(C(=O)NCc3ccccc3Cl)(CC1=O)C2(C)C (stereo not shown)	7.53
CCN(CC)C(=O)c1sc(N2C(=O)Nc3ccccc3N2O)c(C(=O)OC)c1C	-4.49
COc1cccc(NC(=O)CN(C)C(=O)C(CCSC)NC(=O)c2ccco2)c1 (stereo not shown)	-3.97
O=C(COc1ccccc1)NCC(=O)NC1=NCCS1	12.8
COc1cc(OC)nc(NC(=O)CSc2nc3ccccc3[nH]2)n1	-1.61
O=C1CCC(C(=O)N2CCCC(N3CCN(c4cccc(C(F)(F)F)c4)CC3)C2)=NN1 (stereo not shown)	-26.6
O=C(Cn1cc(/C=N/O)c2ccccc21)N1CCOCC1	22.4
CC(C)(C)NC(=O)C(c1ccc(O)cc1)N(C(=O)CCC(=O)Nc1nccs1)c1ccc(F)cc1 (stereo not shown)	7.84
Clc1ccc(OCC#CCN2CCOCC2)cc1.O=C(O)C(=O)O	24.6
Cc1ccc(OS(=O)(=O)c2ccc(N3C(=O)CCC3=O)cc2)cc1	15.7
COc1ccc(-c2cccc([C@H]3[C@@H]4C=CCC[C@@]4(C)C(=O)N3Cc3ccccc3)c2)cc1	16.7

Structure (SMILES)	hERG current change (%, negative = inhibition) at 10uM [%]
O=C(Cn1nc(C(F)(F)F)c2c1CCC2)NCc1ccc(Cl)cc1	14.4
CCOC(=O)Cc1csc(NC(=O)c2cccnc2)n1	-0.223
N#CC(C(=O)c1ccccc1)=C1SCCS1	9.21
Cl.O=c1[nH]cnc2c1N1CCC2CC1	6.9
O=C(OCC(=O)N1CCCCCC1)c1cccs1	21.7
COc1ccccc1C(=O)NCCC(=O)Nc1ncccc1C	22.6
CCOC(=O)C(=O)Nc1nc(-c2ccccc2)c(CC)s1	-3.71
O=C(CSc1nc2ccccc2s1)Nc1ccc(Cl)c(S(=O)(=O)N2CCOCC2)c1	-23
O=C(c1ccc2c(c1)OCCO2)C1CCN(C(=O)Nc2ccccc2F)CC1	6.22
Cc1nn(CC(=O)OCC(=O)Nc2ccccc2[N+](=O)[O-])c(C)c1[N+](=O)[O-]	-9.16
O=C1CCc2cc(S(=O)(=O)N3CCN(c4ccccc4F)CC3)ccc2N1	-30.1
Cc1ccc(N(C(=O)c2snc(C(N)=O)c2N)C(C(=O)NC2CCCC2)c2ccc(C)o2)cc1 (stereo not shown)	-4.62
COc1ccc(OC)c(N(CC(N)=O)S(=O)(=O)c2ccc(OC)c(OC)c2)c1	-0.629
CCCCC(=O)Nc1cccc(-c2cn3ccccc3n2)c1	-13.6
O=C(NCC1CCCO1)c1ccc(S(=O)(=O)Nc2ccccc2F)cc1 (stereo not shown)	0.767
Cc1cc(O)cc2c1O[C@@](C)(CCC[C@@H](C)CCC[C@@H](C)CCCC(C)C)CC2	-8.93
Cc1cc(C(=O)COC(=O)c2ccc(O)cc2O)c(C)n1-c1ccccc1	-4.8
CCCCOc1ccc(C2/C(=C(/O)c3ccc4c(c3)CC(C)O4)C(=O)C(=O)N2CCCN2CCOCC2)cc1OC (stereo not shown)	11.9
Cc1nnc(SCC(=O)N2CCN(S(=O)(=O)c3ccccc3)CC2)n1Cc1ccccc1	5.16

From paper PMC4336329 (PLoS ONE, 2015)
